Source: PubChem BioAssay AID686971 (National Center for Advancing Translational Sciences (NCATS), 2013)
Hit rate of the full screen: of about 360,000 compounds, about 7,500 (2.1%) were called active. The inconclusive results got no clear call from the source; some entries with a clear call stand among them for comparison. The call rests on the fitted dose curve; in most records, active means well fitted cell-killing curve with a large enough effect; inconclusive means small, poorly fitted or top-dose-only effect, or effect the other way, or another doubt; inactive means no such curve, though single readings can be large or run the other way. No potency is given beside an inconclusive call; the fits are too rough.

Assay: qHTS for induction of synthetic lethality in tumor cells producing 2HG: qHTS for the HT-1080-IDH1KD cell line;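 on activity, negative = toxicity: 0% = DMSO wells and -100% = cell-free medium wells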
Details: HT-1080 IDH1 knockdown viability, ATP luminescence, 48 h; activity, negative = toxicity: at 46.1 µM (top of the series) unless noted
Outline: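 Assay cells: HT-1080 with IDH1 knockdown, 750 per well, RPMI/5% FBS. Exposure: 48 h at 37 °C following 2 h pre-incubation. Read: CellTiter-Glo luminescence; fitted concentration-response, curve class assigned.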
Potency means the concentration at half of the fitted maximal effect; tags describe the fitted curve by direction and shape.

SMILES	Potency	activity, negative = toxicity
C/C(CCCO)=N/Nc1ccc([N+](=O)[O-])cc1[N+](=O)[O-]	inconclusive [cytotoxic, partial curve]	
COc1cc(/C=C/c2cc(C(F)(F)F)[nH]c(=O)n2)cc(OC)c1OC	active: 29.1 µM	
CCCCCn1c(CN2CCN(c3cccc(Cl)c3)CC2)nc2c1c(=O)[nH]c(=O)n2C	inconclusive [cytotoxic, single point]	
CCCNC(=O)c1cc(-c2ccc(Br)cc2)on1	inconclusive [rising, partial curve, poor fit]	
O=C(Nc1ccc(S(=O)(=O)NCC2CCCO2)cc1)c1cccc(F)c1 (centres undefined)		inactive: -3.09%
Cc1ccc(C)c(S(=O)(=O)NCc2ccncc2)c1	inconclusive [cytotoxic, partial curve]	
Cc1ccc([N+](=O)[O-])cc1N=C1C(=O)Nc2ccccc21	inconclusive [cytotoxic, single point]	
CC1C(=O)OC(c2ccc(Cl)cc2)C(C)(C)C1=O (centres undefined)		inactive: 1.69%
Cc1cccc(OC(C)C(=O)Nc2ccc3c(c2)OCCO3)c1 (centres undefined)		inactive: 8.54%
O=C(Nc1cc(Oc2ccc(Cl)cc2)cc([N+](=O)[O-])c1)c1ccco1	inconclusive [cytotoxic, single point]	
CC(C)c1ccc(/C=C(\c2nc3ccccc3[nH]2)S(=O)(=O)c2ccccc2)cc1	active: 3.26 µM	
CCCCCCCCCCCCCCCC(=O)Nc1ccn(C2OC(CO)C(O)C2O)c(=O)n1 (centres undefined)	inconclusive [cytotoxic, full curve, poor fit]	
COc1cccc(S(=O)(=O)Nc2ccc(C(O)(C(F)(F)F)C(F)(F)F)cc2)c1	inconclusive [cytotoxic, single point]	
CC(=O)Nc1ccc(Cl)cc1-c1ccccc1	inconclusive [cytotoxic, partial curve]	
COc1cc(OC)nc(Nc2nc(C(N)COCc3ccccc3)cs2)n1 (centres undefined)	inconclusive [cytotoxic, single point]	
CC(C)(C)c1ccc(-n2ncc3c2CCCC3NC(=O)CCN2CCCC2=O)cc1 (centres undefined)	active: 18.4 µM	
Cc1cccc(NC(=S)NC(NC(=O)OCc2ccccc2)C(Cl)(Cl)Cl)c1 (centres undefined)	inconclusive [cytotoxic, single point]	
CCOC(=O)c1c(Nc2ccccc2)sc(/C=C2\C=Nc3ccccc32)c1O	inconclusive [cytotoxic, single point]	
O=C(Nc1ccc(Cl)cc1)N1CCc2ccccc2C1	inconclusive [cytotoxic, single point]	
